According to patent US20230414779A1, “ANTIGEN-BINDING FRAGMENTS AND USES THEREOF” (NewSouth Innovations Pty Limited, priority 2020, published 2023):

How the values were obtained:
human platelets = assay: Platelet binding, flow cytometry (platelet-based fluorescent assay); conditions: labelled scFvs, in words
Description: FIG. 1D provides graphs of platelet-based fluorescent assay measurements with KD and R^2 values for the parental scFv, HRU5 and HRU6. Non-linear regression analysis (one-site specific binding) was used to determine KD and R^2 values. GMF, geometric mean fluorescence.
Platelet-rich plasma (PRP) was obtained from whole blood after centrifugation at 200×g for 10 min. Washing/Suspension buffer (PBS, 0.5% BSA, 25 mM EDTA, pH 6.8) was used for platelet preparation throughout the experiment. 4 μl of PRP was incubated with various concentrations of fluorescently labelled HRU molecules for 30 min. Cells were washed once with 500 μl of buffer (PBS, 0.5% BSA, 25 mM EDTA, pH 6.8), suspended in 200 μl of PBS and analysed by flow cytometry (Cantoll, BD Biosciences).

thrombin (Homo sapiens) = target: T1, thrombin (Homo sapiens); assay: Thrombin time assay in plasma; format: biochemical; conditions: undiluted plasma, increasing concentrations, in words
T1 construct: purchased Diagnostica STAGO S.A.A
Description: FIG. 3B is a graph of a Thrombin Time Delay assay for HRU6 and HRU7. Increasing concentrations of HRU molecules were incubated with undiluted plasma prepared from ACD anticoagulated blood. Clotting time of control plasma (untreated plasma) is shown corresponding to 0 concentration (closed circle). […] Clotting time is shown in sec.
The STA-Thrombin kit (Diagnostica STAGO S.A.A.) was used for the determination of the thrombin time by a haemostasis analyser. Plasma was prepared from ACD anticoagulated normal blood by centrifugation for 10 min at 2500×g. 500 μl of undiluted plasma, in the absence and presence of different inhibitor concentrations (e.g., HRU6 and HRU7), was analysed. Thrombin time of the plasma was determined by the analyser.
(§1) HRU6 and HRU7 also contain anti-thrombin activity provided by the lepirudin and bivalirudin moieties respectively. The Hemoclot thrombin inhibitor assay was used to determine the anti-clotting activity. The normal clotting time range is 15-24 sec.

platelets [1] = assay: Thrombin-induced platelet aggregation; format: cell-based, human; conditions: 0.3 U of thrombin
Source text: For thrombin induced platelet aggregation samples were mixed as described above in the presence of 0.3 U of thrombin.

whole blood = assay: Thrombin-induced fibrin deposition in whole blood, microfluidics chamber; format: cell-based; conditions: 0.08 U/ml of thrombin added to whole blood
Description: FIG. 3C provides fluorescence microscopy images of fibrin deposition. Whole blood was incubated with 0.08 U/ml of thrombin and stained with Alexa Fluor 647 anti-fibrin monoclonal antibody in the absence (vehicle) or presence of HRU5 or HRU6. White fluorescence indicates fibrin deposition.
as §1

platelets [2] = assay: Serotonin release assay (platelet activation); format: cell-based, human; conditions: 0.1 IU/ml heparin; induced by KKO (FIG. 4) / HIT serum
Source text: FIG. 4 is a graph of the serotonin release assay. Serotonin release was induced by a HIT-like monoclonal antibody (KKO) and was inhibited by parental scFv, HRU5, HRU6 or HRU7. Heparin was used at therapeutic low concentrations (L, 0.1 U) and at inhibitory high concentration (H,100 U). Dotted lines denote 0% and 20% CPMA. Values over 20% are considered positive. CPMA, counts per minute.
SRA is the gold standard to confirm the presence of platelet-activating HIT antibodies. Platelets from a healthy donor were labelled with Hydroxytryptamine Binoxalate, 5-[2-^14C]-(Serotonin) (^14C-5HT) (1.5 μl/ml) and mixed with heparin (0.1 (low dose) or 100 IU/ml (high dose)) in the presence of HIT serum. The protein of interest was then added to the reaction and incubated at room temperature for 1 h. After centrifugation the supernatant was collected and the ^14C-serotonin released was measured in a scintillation counter. The percentage of ^14C-serotonin released was calculated by determining the proportion in the supernatant relative to the remaining ^14C-serotonin in platelets. A test result is defined as positive if more than 20% serotonin release is detected with a therapeutic heparin concentration of (0.1 IU/ml) but not with a high dose of heparin (100 IU/ml).

monocytes = assay: Binding to monocytes in vivo after iv injection, flow cytometry; set-up: species or system mouse; conditions: bled at 1 min and 15 min
Description: FIG. 6A is a plot showing the binding of HRU4, HRU5 and HRU6 to monocytes in vivo. Labelled HRU proteins were injected intravenously into double transgenic mice (FcγRIIA/hPF4). Mice were bled at 1 min and 15 min and binding was determined by flow cytometry.

B1: HRU6: HRU5 linked to lepirudin (an anticoagulant peptide) by a Ser2Gly12 linker (protein)
scFv: EVQLVESGPELKKPGETVKISCKASGYTFTNYGMNWVKQAPGKGLKWMGWLNTYTGESIYPDDFKGRFAFSLETSASTAYLQINNLKSEDTATYFCARGDYGYDDPLDYWGQGTSVTVSSGGGGWAWVWLTETAVGGGGSDIVMTQAPPSVPVTPGESVSISCRSSKSLLHTNGNTYLHWFLQKPGQSPRLLIYRMSVLASGVPDRFSGSGSGTDFTLKISRVEAEDVGVYYCMQHLEYPLTFGAGTKLEIKRAGGGGSGGGGSGGGGLTYTDCTESGQNLCLCEGSNVCGQGNKCILGSDGEKNQCVTGEGTPKPQSHNDGDFEEIPEEYLQHHHHHH
In the case of B1, the “binding to human platelets” value (human platelets) is reported as “stronger binding to human platelets than expected”, the thrombin clotting time (thrombin (Homo sapiens)) is reported as “significant increases in thrombin clotting time; also recorded: prolong clotting time in a dose-dependent manner” and the “inhibition of thrombin-induced platelet aggregation” value (platelets [1]) is reported as “inhibit thrombin-induced platelet aggregation in a dose dependent manner”. The “inhibition of fibrin deposition” value (whole blood) was “completely inhibits fibrin deposition”, the 14C-serotonin release (platelets [2]) was “inhibited” and the binding to monocytes (monocytes) was “unexpectedly strong binding to monocytes”.

Entries after “also recorded” stand apart in the source; their conditions may differ.
